The list shows a part of the results.

This is an account of results in the supplement of paper PMC11417369.

The assay concerns PfSIP2 AP2 domain 1 (GST-tagged). The experiment in a line: gcPBM binding intensity (ln(normalized median fluorescence intensity)); higher = stronger DNA binding. The method in brief:
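GST-tagged P. falciparum DNA-binding domains produced in E. coli were incubated for 1 h on an Agilent 4 × 180k array of primer-extended double-stranded 36-bp intergenic genomic probes with negative controls. Binding intensity is the highest Masliner-normalised natural-log median intensity across replicate spots of either probe orientation, with bound protein detected by Alexa488 anti-GST antibody at 488 nm.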
For the sequence “TGATAATTTTTTACATGTACAAGTTTGTTTTTGCAT [XGTACX_site125]”, the “gcPBM binding intensity (ln)” value stood at 6.96. On to “TTATCGGTATAATATAGTACATATAGATATATAATA [XGTACX_site1440]”, for which the “gcPBM binding intensity (ln)” value was 6.97.

As for “ATAATGGAGAAATAAGCATGCATTATATTATAAAAA [TGCATGCA_site325]”, the “gcPBM binding intensity (ln)” value came out at 6.58.

For “TAAAAGTTAATATAAACACACAAAAATTAATAAATA [CACACA_site6316]”, the “gcPBM binding intensity (ln)” value amounted to 6.89.

“AATTTCTATTTTGTGAGTACATACTCCTATTATATA [XGTACX_site3210]”: the “gcPBM binding intensity (ln)” value was 7.31. The figure for “TGAATATTTCTATATACACACATATAAATATAAATA [CACACA_site7593]” is 6.84; for “AAAAAAAAAAAAATGTAATTTTTTAATTATTTATAT [GTGCAC_negctrl_site436]” it is 6.94; for “CATATATTTTTGTATAGTACTTTTTTTATTCGTTTT [XGTACX_site1860]” it is 7.11. Regarding “TATTTTATCATTTGCACACGCACACCGACATAAAAA [CACACA_site4348]”, the “gcPBM binding intensity (ln)” value came to 7.71. With “CATCTAAATTGTAGTTGTACACCTTAATCTTATTAC [XGTACX_site7547]” the figure was 7.23; with “ACTCTCTTATATTAAACACACATATTTATAGGTATA [CACACA_site7302]”, 7.41. The figure for “ATTTTAGAATAAATTTTTTACATTAAAAAACTATTT [CACACA_negctrl_site1414]” is 6.7; for “GTATCAAAAGAATACACACACACATACATATATATA [CACACA_site3796]” it is 7.53. In the case of “CATACAATAAATATGGTGCATTTTATGTAACCGTTT [GTGCAC_site9420]”, the “gcPBM binding intensity (ln)” value came to 10.4. As for “AAGGATATAACATACACACACACACGGATATAAATA [CACACA_site7867]”, the “gcPBM binding intensity (ln)” value was 7.06. In the case of “TGAACATATTAAAATTGTACATATGCACAATATGTA [XGTACX_site6801]”, the “gcPBM binding intensity (ln)” value came out at 7.44. Take “TGAAAAATAAATAAATGTACATATATATATATATAC [XGTACX_site7310]”: the “gcPBM binding intensity (ln)” value came out at 7.3. With “AGAAATACAAAATAAATATAAGAAACAAAATATTTA [CACACA_negctrl_site780]” the figure was 6.78; with “AAAAGGTTATCAATATGTACATATTTTTTTATTTTT [XGTACX_site3277]”, 6.96; with “TTTTAATTAAAACACACACACACATATATATATATA [CACACA_site2291]”, 9.62. With “TATTTCATCATATTGTGTACTTAATTTATATAATTA [XGTACX_site5753]” the figure was 7.25. With “ATAAAAATATGATCAACACACGATTAAATATTCATA [CACACA_site1495]” the figure was 6.75.

Turning to “ATTTATTCATTTGGGTGTACTATTTAAAAAAAACAA [XGTACX_site498]”, the “gcPBM binding intensity (ln)” value came to 7.72. The figure for “TATTTATATTTTAACACACACATATTTATATTTATA [CACACA_site7324]” is 7.02; for “TATATATAATTTTATACATGCACATATTATATATAT [TGCATGCA_site1036]” it is 7.87. With “TATATTTTTTAAACCACACACAATATAGAGTATAAT [CACACA_site4510]” the figure was 7.16. The figure for “TATAAATAAAGACACACACACATATAAATAAATATA [CACACA_site7155]” is 7.01; for “TTTATATACTATTCAAAGTGATAAATAATATATGAA [TGCATGCA_negctrl_site352]” it is 6.79; for “AAAAAAAAAAAACATACACACAATAAAATAGGGGTA [CACACA_site2399]” it is 6.89.

Turning to “ATTTATTTATTAAGATGTACTTATTAAAAATAATAA [XGTACX_site7392]”, the “gcPBM binding intensity (ln)” value was 7.05. With “CACATACAGACATACACACACATATAGATTAATATA [CACACA_site6399]”, the “gcPBM binding intensity (ln)” value worked out at 7.24. The figure for “TTAGGGTTTTATAAATGTACTTATTTATACATCCTC [XGTACX_site5769]” is 6.85.

For “AATAAGAAATGTAAATGTACATAAAAAAAAGTATAT [XGTACX_site3573]”, the “gcPBM binding intensity (ln)” value stood at 7.33.

Consider “TATATATATATATTATGTACATATATATTAAATATG [XGTACX_site2494]”, for which the “gcPBM binding intensity (ln)” value was 9.08. The figure for “ATTTTTTAACATATCATACACACAACCACTTTTTAT [CACACA_site1961]” is 7.27; for “TAAACATTTTTGCACGCACACAAAAAAAAAATAAAA [CACACA_site167]” it is 7.71; for “ATTAAATGCAGTTCGGTGCATTAAGGTTATGATGAA [GTGCAC_site9883]” it is 9.01. With “CATTCATTTATTAATTGTACTTTTAAGGTTAAATAA [XGTACX_site5838]” the figure was 7.02; with “ATTATATATACACGCACACACACTTATATATATATA [CACACA_site9093]”, 9.06; with “TTTTTAACATATCATACACACAACAACTTTTTATAG [CACACA_site1962]”, 7.01. With “CAAGCCCTTCTGCTTACACACAGTAATTATTGTGTA [CACACA_site2953]” the figure was 6.75; with “TAAAAATATATACATACATGCATACATATATATGTA [TGCATGCA_site774]”, 6.92. As to “TAATTTATTATATTTTGTACGTAAAATTATTATTGT [XGTACX_site8155]”, the “gcPBM binding intensity (ln)” value worked out at 7.43. With “TAGGAAAAGAAAAGCACACACATAAATAAATATATA [CACACA_site504]” the figure was 6.87.
